Test results: paper PMC4336329 (PLoS ONE, 2015)
Among all 310,000 compounds or so, about 2,200 (0.71%) showed an effect of 50% or more. Effects have a minus sign here. Some of the results follow.

These compounds were tested against human ether-à-go-go-related gene (hERG) potassium channel (human, UniProt Q12809) (assay: primary screen, population patch clamp on CHO cells stably expressing hERG).
Sequence of human ether-à-go-go-related gene (hERG) potassium channel (Q12809 whole entry, looked up): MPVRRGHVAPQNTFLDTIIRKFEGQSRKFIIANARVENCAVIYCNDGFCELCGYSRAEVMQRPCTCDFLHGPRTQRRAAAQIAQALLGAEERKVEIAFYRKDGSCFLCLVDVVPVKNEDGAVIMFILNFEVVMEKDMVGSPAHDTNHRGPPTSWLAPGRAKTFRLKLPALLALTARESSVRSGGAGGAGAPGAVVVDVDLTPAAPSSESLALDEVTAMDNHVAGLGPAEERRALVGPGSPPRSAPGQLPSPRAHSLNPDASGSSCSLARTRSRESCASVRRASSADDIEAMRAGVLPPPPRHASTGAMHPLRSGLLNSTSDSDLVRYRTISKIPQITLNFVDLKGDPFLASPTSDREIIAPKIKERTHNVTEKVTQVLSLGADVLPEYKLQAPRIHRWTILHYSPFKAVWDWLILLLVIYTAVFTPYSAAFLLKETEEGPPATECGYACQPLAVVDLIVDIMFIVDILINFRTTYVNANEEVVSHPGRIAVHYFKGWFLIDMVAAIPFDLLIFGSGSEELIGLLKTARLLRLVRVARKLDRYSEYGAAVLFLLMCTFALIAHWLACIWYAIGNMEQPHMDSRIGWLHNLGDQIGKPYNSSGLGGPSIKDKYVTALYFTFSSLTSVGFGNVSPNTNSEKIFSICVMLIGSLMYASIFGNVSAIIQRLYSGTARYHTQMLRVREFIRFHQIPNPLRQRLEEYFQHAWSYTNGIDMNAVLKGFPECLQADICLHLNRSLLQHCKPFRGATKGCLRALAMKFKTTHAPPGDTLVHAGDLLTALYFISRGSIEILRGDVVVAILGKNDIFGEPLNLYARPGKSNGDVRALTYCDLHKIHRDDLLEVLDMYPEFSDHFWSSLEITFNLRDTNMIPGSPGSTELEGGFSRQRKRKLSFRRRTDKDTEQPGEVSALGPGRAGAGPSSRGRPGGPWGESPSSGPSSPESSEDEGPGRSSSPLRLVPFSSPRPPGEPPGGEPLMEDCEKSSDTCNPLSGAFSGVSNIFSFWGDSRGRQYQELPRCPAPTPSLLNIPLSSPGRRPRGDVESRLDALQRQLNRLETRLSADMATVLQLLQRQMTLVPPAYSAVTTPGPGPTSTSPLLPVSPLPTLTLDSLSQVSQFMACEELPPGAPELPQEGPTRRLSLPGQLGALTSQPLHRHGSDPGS

Row | Compound | hERG current change (%, negative = inhibition) at 1uM [%]
1 | O=C(CC(c1ccccc1)(c1ccccc1)c1ccccc1)N[C@@H](Cc1ccc(O)cc1)C(=O)O | -2
2 | CC1(C)Cc2c(sc(NC(=O)c3ccc4ncsc4c3)c2C(N)=O)C(C)(C)N1 | 10.3
3 | CC(C)n1nnnc1-c1cc(Cl)cc(Cl)c1 | -9.41
4 | O=C(CN1C(=O)S/C(=C\c2ccc(C(=O)O)cc2)C1=O)Nc1ccccc1 | 14.8
5 | Cc1cc(=O)[nH]c(SCC(=O)Nc2c(C)n(C)n(-c3ccccc3)c2=O)c1C#N | 11.7
6 | COc1ccc(C2/C(=C(/O)c3ccccc3)C(=O)C(=O)N2CO)cc1 (centres unmarked) | 4.31
7 | O=C(CSC(=S)N1CCOCC1)Nc1nccs1 | 4.12
8 | CCOC(=O)C1CCN(C(=O)c2cccc(NC3=NC4CS(=O)(=O)CC4S3)c2)CC1 (centres unmarked) | 7.14
9 | CN(C)CCCn1c(SCc2ccc(Cl)cc2)nnc1-c1ccncc1.O=C(O)C(=O)O | 7.61
10 | O=C(CCC1COc2ccccc2O1)NCc1ccco1 (centres unmarked) | 7.03
11 | Cc1nnc(N/N=C/c2ccccc2C(F)(F)F)n1N.Cl | 12.2
12 | FC(F)(F)c1cccc(NC(=S)N2CCN(c3cccc(C(F)(F)F)c3)CC2)c1 | 10
13 | COc1cc(NC(=O)c2csc(N)n2)cc(C(=O)Nc2cccc(C(F)(F)F)c2)c1 | 7.83
14 | N#Cc1cc(C(=O)c2cc(Br)ccc2O)cn(C2CC2)c1=O | -7.81
15 | Cc1ccc(-c2nnc(N3CCC(C)CC3)c3ccccc23)cc1 | 7.11
16 | CCCCN(C(=O)CNC(=O)c1cccs1)C(C(=O)NC1CCCC1)c1ccncc1 (centres unmarked) | 12.8
17 | Nc1nc(Cl)c(C=O)c(N2CCCCC2)n1 | 0.77
18 | CCOC(=O)C1CCCN(C(=S)Nc2ccc(C)cc2C)C1 (centres unmarked) | 12
19 | Cc1ccc(NC(=S)N2CCN(S(=O)(=O)c3ccccc3)CC2)cc1 | 8.97
20 | CO/N=C(\Cn1ncc(N2CCCC2)c(Br)c1=O)c1ccc(Cl)cc1 | 12.4
21 | CCC(C)[C@H](NC(=O)[C@@H]1CSC2c3ccccc3C(=O)N21)C(=O)NCC1CCCO1 (some centres unmarked) | 20.6
22 | Cl.NC(CCC(=O)O)C12CC3CC(CC(C3)C1)C2 (centres unmarked) | 5.72
23 | Cc1ccc(OCC(O)CN2CCN(c3ccccn3)CC2)c(C)c1.Cl (centres unmarked) | -1.95

Row | Compound | hERG current change (%, negative = inhibition) at 1uM [%]
24 | O=C(CC(C(=O)O)c1cccc(Cl)c1)c1ccccc1 (centres unmarked) | 12.9
25 | COc1ccc(NC(=O)CN(C)CC(=O)Nc2ccccc2SC)cc1 | 4.92
26 | CCN1CCCC1CNC1=NCCCCC1 (centres unmarked) | 9.24
27 | Cc1cc(S(=O)(=O)N2CCCC2)ccc1OCC(=O)N1CCOCC1 | 10.6
28 | CCCCCCC#Cc1ccc2c(c1)COc1c3ccccc3nn1-2 | 11
29 | COc1ccc(C(=O)C[n+]2cccc3cc(OC)ccc32)cc1.[Br-] | 8.79
30 | N#C/C(=N\Nc1ccccc1F)C(=N)N1CCCCC1 | -4.33
31 | CCOC(=O)/C(C#N)=C\c1ccc(CC)s1 | -1.09
32 | O=C(CCN1C(=O)c2ccncc2C1=O)NCc1ccc(Cl)cc1 | -22
33 | Cn1ccsc1=NC(=O)c1ccc(CS(C)(=O)=O)cc1 | 14.3
34 | COC1(OC)N=C(N)C2(C#N)C(c3ccc(C)cc3)C12C#N (centres unmarked) | 10.3
35 | Nc1cccc(C2=Nc3cccc4cccc(c34)N2)c1 | 3.65
36 | COc1cccc(OC(=O)N2CCOCC2)c1 | 9.6
37 | COc1ccc(-n2c(N)cc(=O)[nH]c2=O)cc1 | 7.51
38 | Cc1cccc(N(C(=O)Cc2cccs2)C(C(=O)NCc2ccco2)c2ccncc2)c1 (centres unmarked) | 8.56
39 | CC(C)Oc1cccc(C(=O)C2CCCN(Cc3cccn3-c3cccnc3)C2)c1 (centres unmarked) | 12.4
40 | CCn1cc(C(=O)NCCc2ccc(OC)c(OC)c2)c(=O)c2cc(S(=O)(=O)N3CCOCC3)ccc21 | 8.59
41 | Cn1c(C(=O)OCC(=O)NCc2ccc(F)cc2)cc2occc21 | -6.25
42 | CC(C)(C)c1ccc2c(c1)OC(C(=O)N/N=C\c1ccncc1)CO2 (centres unmarked) | 9.54
43 | CSc1ccccc1OCc1cc(C(=O)NCCC2=CCCCC2)no1 | -4.18
44 | COc1cc(CN(C)Cc2nc3cc(C(F)(F)F)ccc3c(=O)[nH]2)ccc1OC(F)F | -2.58
45 | COc1ccccc1CN(C)C(=O)c1ccc(S(=O)(=O)NCc2ccco2)cc1 | 9.37
46 | CN1CCN(C(=O)CN(C)S(=O)(=O)c2ccc3ccccc3c2)CC1 | 9.93

Row | Compound | hERG current change (%, negative = inhibition) at 1uM [%]
47 | Cn1cnc2c1c(=O)n(Cc1ccc(Cl)cc1Cl)c(=O)n2C | 14.4
48 | COc1ccc(C(=O)NCC2CCCCC2)cc1S(=O)(=O)N1CCCC1 | -3.08
49 | Cc1ccccc1NC(=O)c1c2c(nc3ccccc13)CCC2 | 7.88
50 | COc1cc(SC)ccc1C(=O)NCCCn1ccnc1 | -0.336
51 | Cc1nn(Cc2ccccc2)c(C)c1/C=N/NC(=O)c1ccccc1O | 1.67
52 | CC(C)CCCN1CCN=C1N(C)C | 12.5
53 | CCCOc1ccc(S(=O)(=O)NCc2ccc(OC)cc2)cc1 | 2.08
54 | CC(C)NC(=S)N(CCc1ccncc1)C(C)C | -0.63
55 | CCN1CCN(c2ccc([N+](=O)[O-])c(Sc3nc4ccccc4[nH]3)c2)CC1 | -43.8
56 | CN(C)N1C(N)=C(C#N)C(c2cccs2)C2=C1CCCC2=O (centres unmarked) | 9.76
57 | O=S(=O)(c1ccccc1)N(Cc1ccccc1)c1ccccn1 | 10.3
58 | CCOCCOC(=O)c1[nH]c2c(c1C)C(=O)CC(c1ccc(OC)c(OC)c1)C2 (centres unmarked) | 5.15
59 | CC(C)CNC(=O)C(=O)NNC(=O)c1ccco1 | 16.6
60 | COc1cccc(-c2nnc(-c3ccccc3[N+](=O)[O-])o2)c1 | 10.8
61 | Cc1ccc(C2C(C(=O)c3cc4ccccc4o3)=C(O)C(=O)N2c2cc(C)on2)cc1 (centres unmarked) | 15.4
62 | CCc1ccccc1NC(=S)N1CCC(NC(=O)c2ccc(OC)cc2)CC1 | -3.91
63 | Cc1ccc(CN2CCN(C(=O)CC(C)C)CC2)cc1 | 6.93
64 | O=C1CC(c2ccc(F)c(Br)c2)C2=C(CCCC2=O)N1 (centres unmarked) | 2.31
65 | COc1cc2c(cc1OC)C(C)N(C(=S)Nc1ccccc1)CC2 (centres unmarked) | 0.862
66 | O=C(O)CC(NC(=O)c1ccncc1)c1ccccc1 (centres unmarked) | 7.75
67 | Cc1nc(SC(C)C(=O)NCC2CCCO2)c2cc(-c3ccccc3)sc2n1 (centres unmarked) | -2.98
68 | COc1ccc(-c2cn(-c3cccc(C)c3)c(=O)[nH]2)cc1OC | 11
69 | CC(=O)C(c1ccccc1)C(c1ccccc1)C(C)[N+](=O)[O-] (centres unmarked) | 12.2

Row | Compound | hERG current change (%, negative = inhibition) at 1uM [%]
70 | CCn1c(C)c(C)c2cc(C(=O)NCCCN3CCCCCC3)ccc21 | 1.29
71 | O=Cc1c(-[n+]2ccccc2)nc([O-])n1-c1ccccc1 | 6.5
72 | CCC(=O)NC(c1cc(Cl)c2ccccc2c1O)C1CC1 (centres unmarked) | 10.4
73 | Cc1ccc(Nc2nc(N)nc(CN3CCC(C)CC3)n2)c(C)c1 | -18.5
74 | CCC(=O)Nc1nc(C)c(-c2csc(Nc3ccccn3)n2)s1 | 8.53
75 | O=C(COc1cccc(C(F)(F)F)c1)NNC(=O)Cn1c(=O)cnc2ccccc21 | 10.1
76 | COCCCN(Cc1ccco1)C(=O)CSc1nc2ncccc2[nH]1 | 14.9
77 | O=C(NC1CCCC1)C(c1ccc(O)cc1)N(CC1CCCO1)C(=O)C1COc2ccccc2O1 (centres unmarked) | 5.42
78 | O=C(c1ccccc1Sc1cccc2ccccc12)N1CCOCC1 | 7.17
79 | Cc1ccc(C(=O)Nc2c(C)cc(C)c3cccnc23)cc1 | 14
80 | Cc1cc(C)cc(NC(=O)COC(=O)[C@@H](NC(=O)c2ccco2)C(C)C)c1 | -1.71
81 | C/C(=N\NC(=O)c1cccc(F)c1)c1ccc(Br)s1 | 22.6
82 | Cc1csc(SCC(=O)c2c(N)n(C)c(=O)n(C)c2=O)n1 | 12.6
83 | Nc1nnc(SCC(=O)NCCNC(=O)CSc2nnc(N)s2)s1 | 13.9
84 | CN(C)C(=O)N1CCCC(C(=O)NCc2ccc(F)cc2Cl)C1 (centres unmarked) | 11.2
85 | Cc1ccc(NCC(=O)N/N=C/c2cc3ccccc3nc2Cl)cc1 | 16.4
86 | Fc1ccc(OCc2nc(-c3ccncc3)n[nH]2)cc1 | 13.4
87 | CC(OC(=O)Cn1[nH]c(=O)c2ccccc2c1=O)C(=O)c1ccccc1 (centres unmarked) | 13
88 | CSc1ccccc1OCc1cc(C(=O)N2CCC(c3ccncc3)CC2)no1 | -0.644
89 | CN(CC(=O)Nc1ccccc1)CC(=O)Nc1ccc(F)cc1 | 13.5
90 | CCC(=O)Nc1c2c(nn1-c1cccc(Cl)c1)CSC2 | -0.778
91 | O=C(Nc1nc(-c2ccccn2)cs1)C12CC3CC(CC(O)(C3)C1)C2 | 11.9
92 | CN1C(=O)N(C)C2(c3ccccc3)NNC(N)=NC12c1ccccc1.Cl (centres unmarked) | 5.36
